# In all, about 310,000 compounds went through this assay and about 2,200 (0.71%) showed an effect of 50% or more. The effect is printed as a negative number. This is one part of the list.
# Target: human ether-à-go-go-related gene (hERG) potassium channel (human, UniProt Q12809)
# Test: primary screen, population patch clamp on CHO cells stably expressing hERG
# Chain of human ether-à-go-go-related gene (hERG) potassium channel (Q12809 whole entry, looked up): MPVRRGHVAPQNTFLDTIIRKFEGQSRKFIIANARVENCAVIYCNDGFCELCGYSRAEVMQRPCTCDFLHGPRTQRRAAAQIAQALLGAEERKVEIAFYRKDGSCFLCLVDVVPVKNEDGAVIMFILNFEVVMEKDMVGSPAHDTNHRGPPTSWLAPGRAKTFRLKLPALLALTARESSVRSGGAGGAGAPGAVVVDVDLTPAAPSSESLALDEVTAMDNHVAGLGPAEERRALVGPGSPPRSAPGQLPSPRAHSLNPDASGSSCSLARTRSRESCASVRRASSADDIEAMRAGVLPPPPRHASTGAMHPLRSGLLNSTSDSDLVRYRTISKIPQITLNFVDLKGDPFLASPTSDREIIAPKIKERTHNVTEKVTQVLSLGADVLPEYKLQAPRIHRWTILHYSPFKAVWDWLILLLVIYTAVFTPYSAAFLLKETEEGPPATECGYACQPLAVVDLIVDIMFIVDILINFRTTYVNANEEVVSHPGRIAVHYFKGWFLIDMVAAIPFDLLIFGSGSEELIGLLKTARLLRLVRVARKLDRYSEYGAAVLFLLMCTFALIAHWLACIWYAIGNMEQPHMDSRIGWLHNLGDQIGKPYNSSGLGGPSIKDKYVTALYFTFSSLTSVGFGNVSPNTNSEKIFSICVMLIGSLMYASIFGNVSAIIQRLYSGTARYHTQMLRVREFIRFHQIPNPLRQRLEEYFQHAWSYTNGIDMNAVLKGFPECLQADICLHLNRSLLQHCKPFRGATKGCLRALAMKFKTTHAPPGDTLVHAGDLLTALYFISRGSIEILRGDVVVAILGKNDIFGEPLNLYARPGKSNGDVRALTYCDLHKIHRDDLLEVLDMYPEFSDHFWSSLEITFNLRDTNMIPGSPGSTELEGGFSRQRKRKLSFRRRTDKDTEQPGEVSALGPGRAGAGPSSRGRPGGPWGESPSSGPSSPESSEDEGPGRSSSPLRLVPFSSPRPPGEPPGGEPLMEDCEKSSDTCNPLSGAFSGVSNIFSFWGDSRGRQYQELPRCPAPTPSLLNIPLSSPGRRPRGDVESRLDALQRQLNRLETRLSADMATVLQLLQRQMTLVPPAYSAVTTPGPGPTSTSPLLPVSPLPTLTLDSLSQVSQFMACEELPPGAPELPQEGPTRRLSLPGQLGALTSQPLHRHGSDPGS
row,SMILES,"hERG current change (%, negative = inhibition) at 1uM [%]"
1,O=C(CCNS(=O)(=O)c1ccccc1Cl)OCc1nnc(-c2ccccc2Cl)o1,7.79
2,CN(C)/C=C/C(=O)c1cnc2sccn2c1=O,11.2
3,Oc1ccc(/C=N/Nc2nccnc2Cl)c(O)c1,4.17
4,CCOC(=O)c1c(=O)n(O)c2ccc(C)cc2[n+]1[O-],24.4
5,COc1cccc(CN(C)C(=O)CSCC(=O)Nc2cc(C)on2)c1OC,12.5
6,CC(=O)c1cccc(NC(=O)CN2C(=S)NC(C)(C)CC2C)c1 (stereo not drawn),10.6
7,O=C(NCc1csc(-c2cccs2)n1)c1ccccc1,13
8,Cc1cccc(C)c1OCC(=O)Nc1nnc(C2CCCO2)s1 (stereo not drawn),4.79
9,Cc1nnc(NS(=O)(=O)c2ccc(N)cc2)s1,13.1
10,Cc1cc(C(=O)NC2CCCc3c2cnn3-c2cccc(C)c2C)n(C)n1 (stereo not drawn),18
11,Cc1cccc(C)c1NC(=O)c1cn(-c2ccccc2)nc1-c1ccccc1,11.8
12,Nc1nonc1-n1nnc(C(=O)N/N=C/c2cccs2)c1CSc1ccccc1,12.9
13,O=C1CCCN1CCCNS(=O)(=O)c1cccc(F)c1,1.36
14,CC(C)Nc1nnc(SCC(=O)Nc2ccc(F)cc2)s1,11.7
15,CC1(OC(=O)CCc2ccccc2)C(=O)C=C2C=C(c3ccc(C#N)cc3)N(C3CC3)C=C2C1=O (stereo not drawn),-3.82
16,COc1cccc(NC(=O)COC(=O)CNC(=O)C2CCCCC2)c1,17.7
17,Cc1noc(C)c1CSCC(=O)NC1=NCCS1,13.6
18,O=C(CN1CCN(C(=O)C2COc3ccccc3O2)CC1)Nc1ccccc1 (stereo not drawn),-22.5
19,O=C(N/N=C/c1ccco1)c1cc(-c2ccc(Br)s2)[nH]n1,11.1
20,C/C(=N\NC(=O)c1ccc(N2CCCC2=O)cc1)c1ccccc1,11.1
21,Cc1cc(O)c(C(=O)/C=C/c2ccc(Cl)cc2)c(=O)o1,15.7
22,C[C@@H]1NC(=O)c2cc([N+](=O)[O-])cc(I)c2NCC[C@@H](C(N)=O)NC(=O)[C@H](CC(N)=O)NC1=O,5.96
23,O=C(CN1C(=O)C2CC=CCC2C1=O)Nc1nnc(C2CC2)s1 (stereo not drawn),9.43

row,SMILES,"hERG current change (%, negative = inhibition) at 1uM [%]"
1,CCSc1ncc(Cl)c(C(=O)Nc2ccc(S(=O)(=O)Nc3ncccn3)cc2)n1,20.2
2,C=Cc1ccc(Cn2nc(-c3ccc(C)cc3)ccc2=O)cc1,19.4
3,O=C(NCCc1nc2ccccc2[nH]1)c1ccc(Br)o1,4.53
4,FC(F)(F)c1ccccc1/C=N/n1c(COc2ccccc2)n[nH]c1=S,15.3
5,CC(=O)OC(C(=O)NCc1ccc(F)cc1)c1ccccn1 (stereo not drawn),4.85
6,CN(Cc1ccccc1)C(=O)CN(c1ccc(F)cc1)S(=O)(=O)c1ccc2c(c1)OCCO2,2.47
7,O=C(NCCN1CCOCC1)C1CC(=O)N(c2ccc(F)cc2)C1 (stereo not drawn),1.56
8,COC(=O)C1=C(c2ccc(Cl)c(C(F)(F)F)c2)C[C@@H]2CC[C@H]1N2C(=O)NCc1cc(C)oc1C(F)(F)F,12.4
9,O=C(NC(=S)Nc1ccccc1N1CCOCC1)c1cccs1,4.94
10,CC(C)n1c(-c2ccccc2F)n[nH]c1=S,4.41
11,CCN1CCN(c2c(Cl)cccc2NC(=O)c2ccc(Br)o2)CC1,-59.3
12,CC(=O)Nc1ccccc1OCc1nnc(-c2ccccc2Cl)o1,17.2
13,Cn1nc(-c2ccccc2)cc1NC(=O)c1cccs1,11.9
14,CCOc1ccc(N(CC(=O)NCc2ccc(F)cc2)C(=O)c2snc(C(N)=O)c2N)cc1,15.2
15,Cc1cc(C)c(S(=O)(=O)N2CCOC2CNC(=O)C(=O)NCCN(C)C)c(C)c1 (stereo not drawn),18.5
16,Cc1ccc(CSc2nnc(-c3cccs3)n2C)cc1,4.05
17,O=C(c1ccc(C#Cc2ccccc2)o1)N1CCN(c2ccccn2)CC1,8.85
18,CC(=O)Nc1ccc(S(=O)(=O)N2CCC(C(=O)NCc3cccnc3)CC2)cc1,17.9
19,COc1ccc(CNC2=CC(=O)CC(C)(C)C2)cc1,2.26
20,Cc1c(C)n(CCc2ccccc2)c2ncnc(NCCO)c12,-3.9
21,COc1ccc(NC(=O)C2c3cc(OC)c(OC)cc3C(=O)N(C)C2c2cccnc2)cc1OC (stereo not drawn),11.8
22,O=C1NC(Cc2c[nH]c3ccccc23)C(=O)N1Cc1ccc(CN2C(=O)NC(Cc3c[nH]c4ccccc34)C2=O)cc1 (stereo not drawn),13.9

# From PMC4336329 (PLoS ONE, 2015)
